Patent US20220340635A1 (ZHEJIANG DOER BIOLOGICS, published 2022)

B1: A073L1F6 (Fc fusion)
chain: YSEGTFTSDYSKYLDSQAAQDFVQWLMDGGPSSGAPPPSGGGGSGGGGSGGGGSA[letters of human IgG4 Fc with S228P N297A (EU numbers) omitted]
B2: A462L1F6 (Fc fusion)
chain: HSQGTFTSDYSKYLDSQRAQDFVQWLMDTGPSSGAPPPSGGGGSGGGGSGGGGSA[letters of human IgG4 Fc with S228P N297A (EU numbers) omitted]
B3: A307L1F6 (Fc fusion)
chain: HSQGTFTSDYSKYLDSQAAQDFVQWLMDGGPSSGAPPPSGGGGSGGGGSGGGGSA[letters of human IgG4 Fc with S228P N297A (EU numbers) omitted]
B4: A137L1F6 (Fc fusion)
chain: YSEGTFTSDYSKYLDSQAAQDFVQWLLDGGPSSGAPPPSGGGGSGGGGSGGGGSA[letters of human IgG4 Fc with S228P N297A (EU numbers) omitted]
B5: A021L1F6 (Fc fusion)
chain: HSQGTFTSDYSKYLDSRRAQDFVQWLLDGGPSSGAPPPSGGGGSGGGGSGGGGSA[letters of human IgG4 Fc with S228P N297A (EU numbers) omitted]
B6: A227L1F6 (Fc fusion)
chain: HSQGTFTSDYSKYLDEQAAQDFVQWLMAGGPSSGAPPPSGGGGSGGGGSGGGGSA[letters of human IgG4 Fc with S228P N297A (EU numbers) omitted]
B7: A135L1F6 (Fc fusion)
chain: YSEGTFTSDYSKYLDSQAAQDFVQWLMAGGPSSGAPPPSGGGGSGGGGSGGGGSA[letters of human IgG4 Fc with S228P N297A (EU numbers) omitted]
B8: A123L1F6 (Fc fusion)
chain: YSEGTFTSDYSKYLDEEAAQDFVQWLLDGGPSSGAPPPSGGGGSGGGGSGGGGSA[letters of human IgG4 Fc with S228P N297A (EU numbers) omitted]
B9: A504L1F6 (Fc fusion)
chain: HSQGTFTSDYSKYLDSEAAQDFVQWLLAGGPSSGAPPPSGGGGSGGGGSGGGGSA[letters of human IgG4 Fc with S228P N297A (EU numbers) omitted]
B10: A499L1F6 (Fc fusion)
chain: HSQGTFTSDYSKYLDGQAAQDFVQWLLDGGPSSGAPPPSGGGGSGGGGSGGGGSA[letters of human IgG4 Fc with S228P N297A (EU numbers) omitted]
B11: A017L1F6 (Fc fusion)
chain: HSQGTFTSDYSKYLDSRRAQDFVQWLLAGGPSSGAPPPSGGGGSGGGGSGGGGSA[letters of human IgG4 Fc with S228P N297A (EU numbers) omitted]
B12: A271L1F6 (Fc fusion)
chain: HSQGTFTSDYSKYLDSQAAQDFVQWLMAGGPSSGAPPPSGGGGSGGGGSGGGGSA[letters of human IgG4 Fc with S228P N297A (EU numbers) omitted]
B13: A175L1F6 (Fc fusion)
chain: YSEGTFTSDYSKYLDSQAAQDFVQWLLAGGPSSGAPPPSGGGGSGGGGSGGGGSA[letters of human IgG4 Fc with S228P N297A (EU numbers) omitted]
B14: A451L1F6 (Fc fusion)
chain: HSQGTFTSDYSKYLDEERAQDFVQWLMATGPSSGAPPPSGGGGSGGGGSGGGGSA[letters of human IgG4 Fc with S228P N297A (EU numbers) omitted]
B15: A209L1F6 (Fc fusion)
chain: YSEGTFTSDYSKYLDEQAAQDFVQWLLAGGPSSGAPPPSGGGGSGGGGSGGGGSA[letters of human IgG4 Fc with S228P N297A (EU numbers) omitted]
B16: A089L1F6 (Fc fusion)
chain: YSEGTFTSDYSKYLDEEAAQDFVQWLLAGGPSSGAPPPSGGGGSGGGGSGGGGSA[letters of human IgG4 Fc with S228P N297A (EU numbers) omitted]
B17: A512L1F6 (Fc fusion)
chain: HSQGTFTSDYSKYLDGEAAQDFVQWLLDGGPSSGAPPPSGGGGSGGGGSGGGGSA[letters of human IgG4 Fc with S228P N297A (EU numbers) omitted]
B18: A187L1F6 (Fc fusion)
chain: YSEGTFTSDYSKYLDEQAAQDFVQWLLDGGPSSGAPPPSGGGGSGGGGSGGGGSA[letters of human IgG4 Fc with S228P N297A (EU numbers) omitted]
B19: A215L1F6 (Fc fusion)
chain: HSQGTFTSDYSKYLDEQAAQDFVQWLMDGGPSSGAPPPSGGGGSGGGGSGGGGSA[letters of human IgG4 Fc with S228P N297A (EU numbers) omitted]
B20: A266L1F6 (Fc fusion)
chain: HSQGTFTSDYSKYLDEQAAQDFVQWLLDGGPSSGAPPPSGGGGSGGGGSGGGGSA[letters of human IgG4 Fc with S228P N297A (EU numbers) omitted]

Columns and labels:
human GLP-1R = human GLP-1R (human, UniProt P43220); assay: cell-based or functional assay
GCGR = assay: cell-based or functional assay

Row | Binder | GLP-1 R agonist activity (EC50, nM) (human GLP-1R) [nM] | GCGR agonist activity (EC50, nM) (GCGR) [nM]
1 | B1 | 50.6 | 43.2
2 | B2 | 20.1 | 11.4
3 | B3 | 1.95 | 1.62
4 | B4 | 63.5 | 43.9
5 | B5 | 17.7 | 17.8
6 | B6 | 1.48 | 1.5
7 | B7 | 53.5 | 51.9
8 | B8 | 45.6 | 37.4
9 | B9 | 21.8 | 10.6
10 | B10 | 30.5 | 12.3
11 | B11 | 19.9 | 17.1
12 | B12 | 1.34 | 1.39
13 | B13 | 41.7 | 52.2
14 | B14 | 13 | 11.4
15 | B15 | 53.9 | 63.3
16 | B16 | 43.7 | 33.5
17 | B17 | 22.8 | 12.2
18 | B18 | 42.1 | 42.3
19 | B19 | 1.94 | 1.34
20 | B20 | 1.75 | 1.33
